The values that follow come from publication PMC9911399, “Two distinct binding modes provide the RNA-binding protein RbFox with extraordinary sequence specificity”.

Changes are numbered by the printed parent chain; changes in the protein carry UniProt numbers. The list shows a part of the results.

Sequences and labels used below:
T1: RBFOX1 RRM (Homo sapiens, UniProt Q9NWB1 109-208)
T1 sequence: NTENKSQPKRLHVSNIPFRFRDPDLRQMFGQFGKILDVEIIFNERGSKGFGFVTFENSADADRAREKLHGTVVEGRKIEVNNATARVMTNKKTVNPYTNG

B1: GCCCCGC (DNA:RNA)
RNA: GGGAGACCGGAAUUCAGAUUGUCCGCCCCGCUUAAAUCCCGUCGUAGCCACCA
DNA 1: CAATCTGAATTCCGGTCTCCC
DNA 2: TGGTGGCTACGACGGGATT
B2: GCAUAAA (DNA:RNA)
RNA: B1 RNA with C27A, C28U, C29A, G30A, C31A
DNA 1: CAATCTGAATTCCGGTCTCCC
DNA 2: TGGTGGCTACGACGGGATT
B3: UGCCUCA (DNA:RNA)
RNA: B1 RNA with G25U, C26G, C29U, G30C, C31A
DNA 1: CAATCTGAATTCCGGTCTCCC
DNA 2: TGGTGGCTACGACGGGATT
B4: AGAUGUA (DNA:RNA)
RNA: GGGAGACCGGAAUUCAGAUUGUCCAGAUGUAUUAAAUCCCGUCGUAGCCACCA
DNA 1: CAATCTGAATTCCGGTCTCCC
DNA 2: TGGTGGCTACGACGGGATT
B5: UGACAUA (DNA:RNA)
RNA: B4 RNA with A25U, U28C, G29A
DNA 1: CAATCTGAATTCCGGTCTCCC
DNA 2: TGGTGGCTACGACGGGATT
B6: ACCCACU (DNA:RNA)
RNA: B1 RNA with G25A, C29A, G30C, C31U
DNA 1: CAATCTGAATTCCGGTCTCCC
DNA 2: TGGTGGCTACGACGGGATT
B7: CGGUCUU (DNA:RNA)
RNA: B4 RNA with A25C, A27G, G29C, A31U
DNA 1: CAATCTGAATTCCGGTCTCCC
DNA 2: TGGTGGCTACGACGGGATT
B8: GGAUUAU (DNA:RNA)
RNA: B4 RNA with A25G, G29U, U30A, A31U
DNA 1: CAATCTGAATTCCGGTCTCCC
DNA 2: TGGTGGCTACGACGGGATT
B9: UCAACGC (DNA:RNA)
RNA: B1 RNA with G25U, C27A, C28A
DNA 1: CAATCTGAATTCCGGTCTCCC
DNA 2: TGGTGGCTACGACGGGATT
B10: CGGCCCA (DNA:RNA)
RNA: B4 RNA with A25C, A27G, U28C, G29C, U30C
DNA 1: CAATCTGAATTCCGGTCTCCC
DNA 2: TGGTGGCTACGACGGGATT
B11: GGCACAC (DNA:RNA)
RNA: B1 RNA with C26G, C28A, G30A
DNA 1: CAATCTGAATTCCGGTCTCCC
DNA 2: TGGTGGCTACGACGGGATT
B12: CUCCCAU (DNA:RNA)
RNA: B1 RNA with G25C, C26U, G30A, C31U
DNA 1: CAATCTGAATTCCGGTCTCCC
DNA 2: TGGTGGCTACGACGGGATT
B13: CUCGACA (DNA:RNA)
RNA: B4 RNA with A25C, G26U, A27C, U28G, G29A, U30C
DNA 1: CAATCTGAATTCCGGTCTCCC
DNA 2: TGGTGGCTACGACGGGATT
B14: AAAAGCU (DNA:RNA)
RNA: B4 RNA with G26A, U28A, U30C, A31U
DNA 1: CAATCTGAATTCCGGTCTCCC
DNA 2: TGGTGGCTACGACGGGATT
B15: GGCGCUC (DNA:RNA)
RNA: B1 RNA with C26G, C28G, G30U
DNA 1: CAATCTGAATTCCGGTCTCCC
DNA 2: TGGTGGCTACGACGGGATT
B16: GUCAUUA (DNA:RNA)
RNA: B4 RNA with A25G, G26U, A27C, U28A, G29U
DNA 1: CAATCTGAATTCCGGTCTCCC
DNA 2: TGGTGGCTACGACGGGATT
B17: CUUAAAU (DNA:RNA)
RNA: GGGAGACCGGAAUUCAGAUUGUCCCUUAAAUUUAAAUCCCGUCGUAGCCACCA
DNA 1: CAATCTGAATTCCGGTCTCCC
DNA 2: TGGTGGCTACGACGGGATT
B18: UGUUAUG (DNA:RNA)
RNA: B4 RNA with A25U, A27U, G29A, A31G
DNA 1: CAATCTGAATTCCGGTCTCCC
DNA 2: TGGTGGCTACGACGGGATT
B19: UCCGAUC (DNA:RNA)
RNA: B1 RNA with G25U, C28G, C29A, G30U
DNA 1: CAATCTGAATTCCGGTCTCCC
DNA 2: TGGTGGCTACGACGGGATT
B20: AGCCAAG (DNA:RNA)
RNA: B4 RNA with A27C, U28C, G29A, U30A, A31G
DNA 1: CAATCTGAATTCCGGTCTCCC
DNA 2: TGGTGGCTACGACGGGATT

The experiment deals with T1, RBFOX1 RRM. The experiment in a line: EMSA; HiTS-Eq, 1 nM pool, 10 min; buffer printed only for the single-RNA assays: 10 mM Tris pH 7.5, 150 mM NaCl, 3.4 mM EDTA, 0.001% NP-40, 30 C. The following applies: tags: His6 N-terminal (pET28a); label: 5' 32P. Summed up: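 Purified wild-type or mutant RbFox RRM at increasing concentrations was equilibrated with 1 nM of 5′-radiolabelled RNA carrying 7 randomized nucleotides for 10 min in 50 µL. Unbound RNA was separated by 8% native PAGE and sequenced. Relative association constants came from read-count changes of each RNA species compared with the control reaction, normalised to the cognate motif.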
With B1, the binding signal was 0.00766 KA relative to UGCAUGU.

Consider B2, for which the binding signal is 0.00438 KA relative to UGCAUGU.

In the case of B3, the binding signal is 0.0121 KA relative to UGCAUGU.

In the case of B4, the binding signal was 0.00663 KA relative to UGCAUGU.

For B5, the binding signal was 0.00936 KA relative to UGCAUGU.

Take B6: the binding signal is 0.00374 KA relative to UGCAUGU.

In the case of B7, the binding signal is 0.00672 KA relative to UGCAUGU.

On to B8, for which the binding signal is 0.0113 KA relative to UGCAUGU.

Regarding B9, the binding signal was 0.00648 KA relative to UGCAUGU.

As for B10, the binding signal is 0.00668 KA relative to UGCAUGU.

For B11, the binding signal was 0.00325 KA relative to UGCAUGU.

Turning to B12, the binding signal was 0.00325 KA relative to UGCAUGU.

For the molecule B13, the binding signal was 0.00741 KA relative to UGCAUGU.

In the case of B14, the binding signal was 0.00206 KA relative to UGCAUGU.

As to B15, the binding signal was 0.0316 KA relative to UGCAUGU.

Regarding B16, the binding signal was 0.00501 KA relative to UGCAUGU.

For B17, the binding signal is 0.00392 KA relative to UGCAUGU.

In the case of B18, the binding signal was 0.0205 KA relative to UGCAUGU.

On to B19, for which the binding signal was 0.00514 KA relative to UGCAUGU.

As to B20, the binding signal is 0.00281 KA relative to UGCAUGU.
